Laboratory results: PubChem BioAssay AID624417 (National Center for Advancing Translational Sciences (NCATS), 2012)
About 6,400 (1.6%) of roughly 410,000 compounds were called active. This list was built around the results that the source calls inconclusive (neither active nor inactive); the mix of calls is not that of the screen. Calls come from the whole dose curve; as a rule, active = well fitted inhibition curve with a large enough effect; inconclusive = small, poorly fitted or top-dose-only effect; inactive = no such curve, though single readings can be large or run the other way. No potency is given beside an inconclusive call; the fits are too rough.

The compounds below were run against Glucagon-like peptide 1 receptor (Homo sapiens) (UniProt P43220) (assay: qHTS of GLP-1 Receptor Inverse Agonists (Inhibition Mode)). Conditions: HEK293 GLP-1R CRE-luciferase, luminescence, 24 h, GLP-1R form is constitutively active; activity change, negative = inhibition: at 38.3 µM (top of the series) unless noted.
Summary of the method: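 Assay principle: reduced luminescence from a cAMP-responsive reporter in HEK293 cells co-expressing a constitutively active GLP-1R. Conditions: 24 hr compound incubation, 37 deg C, 5% CO2.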
% is set by controls: 0 for no effect and ±100 for the full control effect; potency is the fitted concentration of half-maximal effect; tags give direction and shape of the fitted curve.
Note: nearly all actives have a fitted effect of over 55% in size.

UniProt P43220, sequence (P43220 whole entry, looked up): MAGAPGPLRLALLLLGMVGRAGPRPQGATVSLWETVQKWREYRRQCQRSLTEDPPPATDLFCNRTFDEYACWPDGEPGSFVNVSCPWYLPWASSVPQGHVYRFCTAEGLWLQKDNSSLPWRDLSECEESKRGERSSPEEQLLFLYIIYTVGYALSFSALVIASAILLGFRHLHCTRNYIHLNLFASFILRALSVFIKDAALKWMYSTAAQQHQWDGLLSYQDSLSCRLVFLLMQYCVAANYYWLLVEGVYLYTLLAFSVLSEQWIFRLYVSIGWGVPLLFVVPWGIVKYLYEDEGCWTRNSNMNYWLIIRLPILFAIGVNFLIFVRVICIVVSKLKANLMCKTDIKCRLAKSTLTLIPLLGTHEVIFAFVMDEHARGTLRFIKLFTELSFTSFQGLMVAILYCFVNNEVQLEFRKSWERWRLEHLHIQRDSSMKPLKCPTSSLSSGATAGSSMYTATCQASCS

SMILES	Potency	activity change, negative = inhibition
CC1=C(C(=O)Nc2ccc(C(=O)N3CCN(c4ccccc4F)CC3)cc2)SCCO1	inconclusive [inhibitor, partial curve]	–
Cc1cc(C)c(C)c(S(=O)(=O)N2CCN(C(=S)NCC3CCCO3)CC2)c1C (stereo not drawn)	inconclusive [inhibitor, partial curve, poor fit]	–
FC(F)(F)c1ccccc1/C=N/N1CCN(Cc2ccccc2)CC1	inconclusive [inhibitor, partial curve, poor fit]	–
COc1ccccc1NC(=O)CN(c1ccc(C(C)C)cc1)S(=O)(=O)c1c(C)noc1C	inconclusive [inhibitor, single point]	–
CC(=O)c1ccc(-n2c(CCC(=O)O)ccc2-c2ccc(Cl)cc2)cc1	–	inconclusive: -34% [inhibitor]
CCCn1c(Nc2nc3ccccc3n2C)nc2ccccc21	–	inactive: 0%
Cc1ccc(NC(=O)CSCC(=O)N2c3ccccc3CCc3ccccc32)cc1	inconclusive [inhibitor, single point]	–
Cc1ccc(N2CCN(C(=O)NC3CCCCC3)CC2C)cc1 (stereo not drawn)	inconclusive [inhibitor, full curve, poor fit]	–
Cc1occc1C(=O)N(C)Cc1nc(-c2ccc(Cl)cc2)no1	inconclusive [inhibitor, single point]	–
O=C(NC(=S)NC1C2CC3CC(C2)CC1C3)C12CC3CC(CC(C3)C1)C2 (stereo not drawn)	inconclusive [inhibitor, full curve, poor fit]	–
COC(=O)CCCC(=O)N1CCC(CCC(=O)NCc2ccc(F)cc2)CC1	–	inactive: 15%
CCS(=O)(=O)Nc1ccc(-c2nc3cccnc3s2)cc1	inconclusive [inhibitor, single point]	–
O=S(=O)(c1cccc2cccnc12)N1CCN(c2ccccc2)CC1	–	inactive: -4.8%
Cc1ccc([N+](=O)[O-])cc1NC(=O)CCCOc1ccccc1	–	inactive: 0.857%
CCc1ccc(Nc2cc(C)nc3nc(Cc4ccc(Cl)cc4)nn23)cc1	–	inactive: -35%
Cc1cc(C)nc(OC(C(=O)O)C(OCC(C)C)(c2ccccc2)c2ccccc2)n1 (stereo not drawn)	inconclusive [inhibitor, partial curve, poor fit]	–
COc1ccc(C(CNC(=O)c2oc3ccccc3c2C)N2CCCC2)cc1 (stereo not drawn)	inconclusive [inhibitor, single point]	–
Cc1ccc(NC(=O)CN(C)CC(=O)Nc2ccc(F)c(F)c2F)c(Cl)c1	inconclusive [inhibitor, single point]	–
CCN(CC)c1ccc(S(=O)(=O)N2CCOCC2)cc1NC(=O)CN1CCN(Cc2ccccc2)CC1	inconclusive [inhibitor, single point]	–
CCCCNC(=S)NCc1ccc2[nH]c3c(c2c1)CCCC3	inconclusive [inhibitor, single point]	–
Cc1ccc(C)c(OCCC(=O)N(C)CC(=O)Nc2c(C)cccc2C)c1	inconclusive [inhibitor, full curve]	–
Cn1nc(CC(=O)Nc2ccc3c(c2)OCCO3)c2ccccc2c1=O	–	inactive: 2.28%

SMILES	Potency	activity change, negative = inhibition
CC(C)c1ccc(OCc2cc(=O)n3c4c(sc3n2)CCCC4)cc1	–	inactive: 12.6%
COc1ccc(-c2noc(N3CCCC(C(=O)Nc4cc(F)ccc4F)C3)n2)cc1 (stereo not drawn)	–	inactive: -24.1%
CN(Cc1cccs1)S(=O)(=O)c1ccc(Cl)cc1F	inconclusive [inhibitor, single point]	–
Cc1nc(C)c(-c2csc(Nc3ccc(Cl)cn3)n2)s1	inconclusive [inhibitor, single point]	–
COc1ccccc1-c1sc2ccccc2c1-c1ccc(O)cc1	inconclusive [inhibitor, single point]	–
CC1CC2=C(C(=O)O1)C(c1ccc(Cl)cc1)Nc1ccccc1N2 (stereo not drawn)	–	inactive: -30.5%
Cc1ccc(NC(=O)C(=O)NCC(c2ccc3c(c2)OCO3)N2CCOCC2)c(C)c1 (stereo not drawn)	inconclusive [inhibitor, single point]	–
CCc1ccc(N2CCn3c2nc2c3c(=O)n(Cc3cccc(C)c3)c(=O)n2C)cc1	–	inactive: 4.46%
COc1cc(CNCCN(C)C)c(Br)cc1OCC(=O)NCc1ccccc1	inconclusive [inhibitor, partial curve, poor fit]	–
COc1ccc(C2c3c(n(C)c4ccccc34)C(=O)N2CC(=O)Nc2ccc(Cl)cc2)cc1 (stereo not drawn)	–	inactive: -3.03%
CC(=O)Nc1cc(-c2ccc(N3CCN(C)CC3)cc2)cn2c(-c3ccc(F)cc3)cnc12	inconclusive [inhibitor, single point]	–
Cc1cccc(C)c1OCCNC(=O)C(=O)NCc1ccco1	inconclusive [inhibitor, full curve, poor fit]	–
N#CC(Sc1ccccn1)c1ccc(Cl)cc1 (stereo not drawn)	inconclusive [inhibitor, single point]	–
Cc1ccc(S(=O)(=O)N(C)C[C@@H]2OCc3cnnn3CCCC(=O)N([C@@H](C)CO)C[C@@H]2C)cc1	–	inactive: 5.44%
O=C(CCC1CCCN(C(=O)c2cc3ccccc3o2)C1)NCc1ccc(F)c(F)c1 (stereo not drawn)	inconclusive [inhibitor, single point]	–
COc1cc2nc(SCC(=O)Nc3ccc(F)cc3)n3nc(CCn4c(C)nc5ccccc54)nc3c2cc1OC	–	inactive: 11.2%
COc1ccc(C(=O)c2ccc(Cl)cc2Cl)cc1	inconclusive [inhibitor, partial curve, poor fit]	–
C[C@@]12C(=O)N(Cc3ccccc3)CC(=O)N1[C@H]1c3ccccc3OC[C@@H]1[C@@H]2c1ccccc1	inconclusive [inhibitor, single point]	–
CC1=C/C(=N\Nc2ccccc2[N+](=O)[O-])CC(C)(C)C1	inconclusive [inhibitor, single point]	–
Cc1cc(C)c(NC(=O)c2ccc3c(c2)NC(=O)C(C)S3)c(C)c1 (stereo not drawn)	inconclusive [inhibitor, single point]	–
Cc1ncc([N+](=O)[O-])n1CC(=O)Nc1ccc(Br)cc1	inconclusive [inhibitor, single point]	–
